Experimental data as given in a collection of fitness landscapes (doi:10.1016/j.celrep.2020.107928).
The full ranking holds about 81,000 sequences; the median of “one-hybrid fitness for binding NBS DNA” is about -0.1, and the highest 2% start at about 0.36. The list shows a part of the results.

B1: Caulobacter ParB omega fusion; a variant is named by its letters at X, in order, B8GW30 (parent)
chain: MESVVVGEPGMSEGRRGLGRGLSALLGEVDAAPAQAPGEQLGGSREAPIEILQRNPDQPRRTFREEDLEDLSNSIREKGVLQPILVRPSPDTAGEYQIVAGERAWRAAQRAGLKTVPIMVRELDDLAVLEIGIIENVQRADLNVLEEALSYKVLMEKFERTQENIAQTIGKSXSHVANXMRLLXLPDEVQSYLVSGELTAXHARAIAAAADPVALAKQIIEGGLSVRETEALARKAPNLSAGKSKGGRPPRVKDTDTQALESDLSSVLGLDVSIDHRGSTGTLTITYATLEQLDDLCNRLTRGI

Variants of: B1
Experiment: one-hybrid fitness for binding NBS DNA (the Noc-binding site; scaled: cognate 1, non-cognate 0); higher = stronger binding
Settings: with NBS DNA site
Procedure, shortened: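 Selection: bacterial one-hybrid in E. coli USO, HIS3 reporter with the site 19 bp from the promoter, 48 hours at 37°C on M9-minus-histidine plus 0.1 mM IPTG and 5 mM 3-AT. Libraries were Caulobacter ParB with four randomised specificity codons, sequenced on Illumina before and after selection. Fitness is the rescaled log change in variant-to-wild-type read ratio, anchored to the cognate and non-cognate sites.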

| Variant | one-hybrid fitness for binding NBS DNA |
| --- | --- |
| TTWP | ≤ 0.2 |
| GRRV | ≤ 0.2 |
| AVIN | ≤ 0.2 |
| ALVK | ≤ 0.2 |
| EHCG | ≤ 0.2 |
| RAKT | 0.623 |
| KGTC | ≤ 0.2 |
| MPNR | ≤ 0.2 |
| INPL | ≤ 0.2 |
| VRKA | ≤ 0.2 |
| HREA | ≤ 0.2 |
| AMMT | ≤ 0.2 |
| NSIR | ≤ 0.2 |
| SSRY | ≤ 0.2 |
| SCHH | ≤ 0.2 |
| RRVR | 0.699 |
| HMPE | ≤ 0.2 |
| YFYG | ≤ 0.2 |
| RHVF | ≤ 0.2 |
| EKTG | ≤ 0.2 |
| PLKL | ≤ 0.2 |
| RYPP | ≤ 0.2 |
| AWHV | ≤ 0.2 |
| NHAG | ≤ 0.2 |

| Variant | one-hybrid fitness for binding NBS DNA |
| --- | --- |
| ISHH | ≤ 0.2 |
| NNEL | ≤ 0.2 |
| LVQN | ≤ 0.2 |
| NSQC | ≤ 0.2 |
| QTMN | ≤ 0.2 |
| FAPV | ≤ 0.2 |
| LTFL | ≤ 0.2 |
| MSAC | ≤ 0.2 |
| IYRI | ≤ 0.2 |
| PLHS | ≤ 0.2 |
| PHNH | ≤ 0.2 |
| DQGY | ≤ 0.2 |
| ECTN | ≤ 0.2 |
| SGST | ≤ 0.2 |
| SQLS | ≤ 0.2 |
| RGGS | ≤ 0.2 |
| MCMG | ≤ 0.2 |
| MDEG | ≤ 0.2 |
| PPAN | ≤ 0.2 |
| RSQQ | ≤ 0.2 |
| MGWS | ≤ 0.2 |
| LWDT | ≤ 0.2 |
| DNQC | ≤ 0.2 |
| YYLR | ≤ 0.2 |

| Variant | one-hybrid fitness for binding NBS DNA |
| --- | --- |
| IMRY | ≤ 0.2 |
| WDPR | ≤ 0.2 |
| HPLL | ≤ 0.2 |
| QQRM | 0.459 |
| PGPD | ≤ 0.2 |
| RGRV | ≤ 0.2 |
| ERAR | ≤ 0.2 |
| VPKQ | ≤ 0.2 |
| MPQL | ≤ 0.2 |
| ERSW | ≤ 0.2 |
| RETV | ≤ 0.2 |
| IRSY | ≤ 0.2 |
| VVRV | ≤ 0.2 |
| KWAD | ≤ 0.2 |
| KTSR | ≤ 0.2 |
| VMDC | ≤ 0.2 |
| DKPV | ≤ 0.2 |
| HDWL | ≤ 0.2 |
| RPYG | ≤ 0.2 |
| HTDA | ≤ 0.2 |
| GVMG | ≤ 0.2 |
| GFCL | ≤ 0.2 |
| AYTK | ≤ 0.2 |
| GAMC | ≤ 0.2 |

| Variant | one-hybrid fitness for binding NBS DNA |
| --- | --- |
| QCQC | ≤ 0.2 |
| VRYT | 0.225 |
| VSAC | ≤ 0.2 |
| DLKH | ≤ 0.2 |
| SYLV | ≤ 0.2 |
| SSWC | ≤ 0.2 |
| VDRT | ≤ 0.2 |
| VHCR | ≤ 0.2 |
| VVYN | ≤ 0.2 |
| RLGG | ≤ 0.2 |
| MMAM | ≤ 0.2 |
| QMWY | ≤ 0.2 |
| QITA | ≤ 0.2 |
| QYLR | 0.436 |
| KILT | ≤ 0.2 |
| CCAR | ≤ 0.2 |
| SLTW | ≤ 0.2 |
| NTLC | ≤ 0.2 |
| MTGS | ≤ 0.2 |
| SDWT | ≤ 0.2 |
| PAYF | ≤ 0.2 |
| GGQY | ≤ 0.2 |
| TGVK | ≤ 0.2 |
| LPYC | ≤ 0.2 |

| Variant | one-hybrid fitness for binding NBS DNA |
| --- | --- |
| DWKR | ≤ 0.2 |
| YCQD | ≤ 0.2 |
| WMDG | ≤ 0.2 |
| RADP | ≤ 0.2 |
| LNPF | ≤ 0.2 |
| VLAA | ≤ 0.2 |
| QFAL | ≤ 0.2 |
| PAPK | ≤ 0.2 |
| PQMK | ≤ 0.2 |
| IGSH | ≤ 0.2 |
| TFPT | ≤ 0.2 |
| VMDR | ≤ 0.2 |
| SCRC | ≤ 0.2 |
| STRD | ≤ 0.2 |
| QPIN | ≤ 0.2 |
| RFDE | ≤ 0.2 |
| RVSA | ≤ 0.2 |
| DNKI | ≤ 0.2 |
| LGWI | ≤ 0.2 |
| RIVY | ≤ 0.2 |
| RGYR | ≤ 0.2 |
| TPIH | ≤ 0.2 |
| TAHQ | ≤ 0.2 |
| PKGC | ≤ 0.2 |

| Variant | one-hybrid fitness for binding NBS DNA |
| --- | --- |
| MILR | ≤ 0.2 |
| HSRV | ≤ 0.2 |
| RPDE | ≤ 0.2 |
| RWKK | ≤ 0.2 |
| YSTN | ≤ 0.2 |
| TYAS | ≤ 0.2 |
| VFKP | ≤ 0.2 |
| ACSP | ≤ 0.2 |
| ADKV | ≤ 0.2 |
| GMQL | ≤ 0.2 |
| RVIM | ≤ 0.2 |
| YKEG | ≤ 0.2 |
| VRQV | ≤ 0.2 |
| YHRR | ≤ 0.2 |
| HTWG | ≤ 0.2 |
| PVET | ≤ 0.2 |
| YPVV | ≤ 0.2 |
| DHDL | ≤ 0.2 |
| YTMS | ≤ 0.2 |
| QAGV | ≤ 0.2 |
| GKPL | ≤ 0.2 |
| QHIC | ≤ 0.2 |
| ILLE | ≤ 0.2 |
| IATG | ≤ 0.2 |

| Variant | one-hybrid fitness for binding NBS DNA |
| --- | --- |
| RVTL | ≤ 0.2 |
| EIMS | ≤ 0.2 |
| EKAC | ≤ 0.2 |
| KLTP | ≤ 0.2 |
| RYDM | ≤ 0.2 |
| LAYT | ≤ 0.2 |
| QQPV | 0.227 |
| GMNI | ≤ 0.2 |
| YRAC | ≤ 0.2 |
| AEFI | ≤ 0.2 |
| PRGN | ≤ 0.2 |
| CHLK | ≤ 0.2 |
| HIGG | ≤ 0.2 |
| DMET | ≤ 0.2 |
| QPQW | ≤ 0.2 |
| NTMM | ≤ 0.2 |
| PLPF | ≤ 0.2 |
| RTNN | ≤ 0.2 |
| CKDS | ≤ 0.2 |
| LAQP | ≤ 0.2 |
| RRYQ | 0.207 |
| VRMW | ≤ 0.2 |
| GNRP | ≤ 0.2 |
| NMVV | ≤ 0.2 |

| Variant | one-hybrid fitness for binding NBS DNA |
| --- | --- |
| NRNV | ≤ 0.2 |
| SAFN | ≤ 0.2 |
| FTRM | ≤ 0.2 |
| FTTA | ≤ 0.2 |
| YGIR | ≤ 0.2 |
| PDDR | ≤ 0.2 |
| CHGR | ≤ 0.2 |
| AGLW | ≤ 0.2 |
| TQYG | ≤ 0.2 |
| LRTD | ≤ 0.2 |
| GNTT | ≤ 0.2 |
| ECYV | ≤ 0.2 |
| NGSI | ≤ 0.2 |
| RSWV | ≤ 0.2 |
| FCAD | ≤ 0.2 |
| SLES | ≤ 0.2 |
| LCCG | ≤ 0.2 |
| QALR | 0.424 |
| ILDR | ≤ 0.2 |
| PGEM | ≤ 0.2 |
| QKDK | ≤ 0.2 |
| GIMR | ≤ 0.2 |
| YFKG | ≤ 0.2 |
| SSAG | ≤ 0.2 |

| Variant | one-hybrid fitness for binding NBS DNA |
| --- | --- |
| HARD | ≤ 0.2 |
| SGRF | ≤ 0.2 |
| DIGV | ≤ 0.2 |
| HDVS | ≤ 0.2 |
| SGTI | ≤ 0.2 |
| RDMS | ≤ 0.2 |
| RGNQ | ≤ 0.2 |
| TILN | ≤ 0.2 |
| GSNC | ≤ 0.2 |
| QEIG | ≤ 0.2 |
| LSKT | ≤ 0.2 |
| FRPS | ≤ 0.2 |
| YYSM | ≤ 0.2 |
| FIDS | ≤ 0.2 |
| ATNC | ≤ 0.2 |
| QDLI | ≤ 0.2 |
| PKKR | ≤ 0.2 |
| YNPG | ≤ 0.2 |
| TDPG | ≤ 0.2 |
| VACY | ≤ 0.2 |
| SNLC | ≤ 0.2 |
| HSHH | ≤ 0.2 |
| YIYE | ≤ 0.2 |
| TRDR | ≤ 0.2 |

| Variant | one-hybrid fitness for binding NBS DNA |
| --- | --- |
| WPSM | ≤ 0.2 |
| TRPF | ≤ 0.2 |
| DGSL | ≤ 0.2 |
| DCAR | ≤ 0.2 |
| RGLG | ≤ 0.2 |
| AGAN | ≤ 0.2 |
| VYSG | ≤ 0.2 |
| SYDR | ≤ 0.2 |
| LRLF | ≤ 0.2 |
| EMSR | ≤ 0.2 |
| WYTA | ≤ 0.2 |
| FRDY | ≤ 0.2 |
| DTTG | ≤ 0.2 |
| SSFK | ≤ 0.2 |
| THRK | ≤ 0.2 |
| NDKW | ≤ 0.2 |
| VNRI | ≤ 0.2 |
| QMVE | ≤ 0.2 |
| RHRN | ≤ 0.2 |
| TWWR | ≤ 0.2 |
| RGQR | ≤ 0.2 |
| HMNA | ≤ 0.2 |
| WGAC | ≤ 0.2 |
| MTVG | ≤ 0.2 |

| Variant | one-hybrid fitness for binding NBS DNA |
| --- | --- |
| YVRY | ≤ 0.2 |
| KPYG | ≤ 0.2 |
| NPAI | ≤ 0.2 |
| FQCG | ≤ 0.2 |
| AMSF | ≤ 0.2 |
| TCYT | ≤ 0.2 |
| ACQF | ≤ 0.2 |
| AGPA | ≤ 0.2 |
| LSVS | ≤ 0.2 |
| VENK | ≤ 0.2 |
| TQWA | ≤ 0.2 |
| SCIR | ≤ 0.2 |
| QPKR | 0.405 |
| YLYE | ≤ 0.2 |
| PPEN | ≤ 0.2 |
| DKCR | ≤ 0.2 |
| VPDS | ≤ 0.2 |
| SEAQ | ≤ 0.2 |
| CHHI | ≤ 0.2 |
| RMHV | ≤ 0.2 |
| CMWG | ≤ 0.2 |
| GPHR | ≤ 0.2 |
| FRKT | ≤ 0.2 |
| RVTQ | ≤ 0.2 |

| Variant | one-hybrid fitness for binding NBS DNA |
| --- | --- |
| IKGL | ≤ 0.2 |
| GFLL | ≤ 0.2 |
| SRQV | ≤ 0.2 |
| RGVL | ≤ 0.2 |
| TTLY | ≤ 0.2 |
| TWKY | ≤ 0.2 |
| YAAG | ≤ 0.2 |
| RTMR | 0.503 |
| QLLC | ≤ 0.2 |
| DIPH | ≤ 0.2 |
| FAWC | ≤ 0.2 |
| EVPI | ≤ 0.2 |
| GPPC | ≤ 0.2 |
| TENK | ≤ 0.2 |
| DHPR | ≤ 0.2 |
| ASQS | ≤ 0.2 |
| PQLS | ≤ 0.2 |
| TKLR | ≤ 0.2 |
| IRKF | ≤ 0.2 |
| HVWG | ≤ 0.2 |
| LSPC | ≤ 0.2 |
| WSEC | ≤ 0.2 |
| ACRW | ≤ 0.2 |
| DLCG | ≤ 0.2 |

| Variant | one-hybrid fitness for binding NBS DNA |
| --- | --- |
| TRSP | ≤ 0.2 |
| HGRE | ≤ 0.2 |
| RHDT | 0.258 |
| NWYN | ≤ 0.2 |
| RSQH | ≤ 0.2 |
| PWTQ | ≤ 0.2 |
| YRNG | ≤ 0.2 |
| AIIS | ≤ 0.2 |
| RVYV | ≤ 0.2 |
| LTIL | ≤ 0.2 |
| NAIC | ≤ 0.2 |
| VPSV | ≤ 0.2 |
| STAR | ≤ 0.2 |
| TVTR | ≤ 0.2 |
| SDPG | ≤ 0.2 |
| YTDC | ≤ 0.2 |
| CHQW | ≤ 0.2 |
| KPAM | ≤ 0.2 |
